{"sequences": {"note": "Amino acid sequences for entries named in this document (tags omitted). A change or cut given only in a name is not applied to a line headed by its entry. Chains listed by the source or under a name are the forms on record and can include a tag or linker.", "Myc-tagged RORγt (P51450-2, form named)": "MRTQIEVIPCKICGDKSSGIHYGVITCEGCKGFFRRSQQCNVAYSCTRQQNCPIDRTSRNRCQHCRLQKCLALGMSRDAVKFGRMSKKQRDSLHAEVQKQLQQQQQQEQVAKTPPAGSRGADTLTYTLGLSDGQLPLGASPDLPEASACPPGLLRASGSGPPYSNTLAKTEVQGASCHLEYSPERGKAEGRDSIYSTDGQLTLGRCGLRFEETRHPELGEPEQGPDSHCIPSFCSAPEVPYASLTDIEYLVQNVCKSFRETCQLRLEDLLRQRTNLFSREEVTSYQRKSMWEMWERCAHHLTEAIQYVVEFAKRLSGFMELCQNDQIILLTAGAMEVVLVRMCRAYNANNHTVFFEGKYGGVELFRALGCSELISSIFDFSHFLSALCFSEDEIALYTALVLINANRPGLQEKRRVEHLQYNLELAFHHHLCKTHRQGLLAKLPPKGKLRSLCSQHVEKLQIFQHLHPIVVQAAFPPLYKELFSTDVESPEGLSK", "Myc-tagged RORγt Y479F mutant (P51450-2, form named)": "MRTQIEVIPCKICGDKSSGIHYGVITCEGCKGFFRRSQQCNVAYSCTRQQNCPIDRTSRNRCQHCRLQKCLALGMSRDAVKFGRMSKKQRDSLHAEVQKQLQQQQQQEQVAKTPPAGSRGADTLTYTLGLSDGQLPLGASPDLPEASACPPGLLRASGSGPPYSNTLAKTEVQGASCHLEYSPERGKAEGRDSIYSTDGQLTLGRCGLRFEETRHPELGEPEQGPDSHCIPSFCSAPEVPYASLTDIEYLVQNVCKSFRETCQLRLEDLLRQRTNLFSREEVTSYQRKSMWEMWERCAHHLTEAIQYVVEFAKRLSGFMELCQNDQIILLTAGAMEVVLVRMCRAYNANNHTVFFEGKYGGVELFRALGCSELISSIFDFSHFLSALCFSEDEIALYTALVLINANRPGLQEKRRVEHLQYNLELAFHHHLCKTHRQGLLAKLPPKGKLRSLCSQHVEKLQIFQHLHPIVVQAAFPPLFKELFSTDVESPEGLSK", "Flag-tagged Nedd4 (full-length) (P46934-4, form named)": "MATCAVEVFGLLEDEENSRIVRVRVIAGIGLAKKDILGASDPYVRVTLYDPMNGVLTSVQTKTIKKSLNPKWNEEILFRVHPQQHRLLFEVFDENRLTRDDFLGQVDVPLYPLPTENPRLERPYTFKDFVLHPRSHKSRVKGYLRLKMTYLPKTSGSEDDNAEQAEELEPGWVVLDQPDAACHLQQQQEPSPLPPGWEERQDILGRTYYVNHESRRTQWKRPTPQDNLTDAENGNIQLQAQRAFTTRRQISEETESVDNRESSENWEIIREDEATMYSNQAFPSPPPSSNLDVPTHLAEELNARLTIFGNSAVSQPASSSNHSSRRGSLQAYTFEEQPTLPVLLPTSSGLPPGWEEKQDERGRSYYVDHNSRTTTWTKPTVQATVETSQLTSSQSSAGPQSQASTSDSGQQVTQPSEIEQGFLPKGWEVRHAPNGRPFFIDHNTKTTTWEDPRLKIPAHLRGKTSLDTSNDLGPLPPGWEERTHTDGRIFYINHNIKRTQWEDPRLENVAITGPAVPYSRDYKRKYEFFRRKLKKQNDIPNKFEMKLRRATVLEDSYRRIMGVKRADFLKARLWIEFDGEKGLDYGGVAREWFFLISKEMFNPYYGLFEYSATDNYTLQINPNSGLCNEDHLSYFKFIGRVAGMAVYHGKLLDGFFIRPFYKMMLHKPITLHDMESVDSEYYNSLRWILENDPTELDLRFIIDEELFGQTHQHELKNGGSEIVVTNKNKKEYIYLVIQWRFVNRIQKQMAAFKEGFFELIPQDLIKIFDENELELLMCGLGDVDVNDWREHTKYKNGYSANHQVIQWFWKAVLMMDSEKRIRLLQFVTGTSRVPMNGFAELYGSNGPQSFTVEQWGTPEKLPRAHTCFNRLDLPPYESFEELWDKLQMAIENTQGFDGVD", "UniProt P46935": "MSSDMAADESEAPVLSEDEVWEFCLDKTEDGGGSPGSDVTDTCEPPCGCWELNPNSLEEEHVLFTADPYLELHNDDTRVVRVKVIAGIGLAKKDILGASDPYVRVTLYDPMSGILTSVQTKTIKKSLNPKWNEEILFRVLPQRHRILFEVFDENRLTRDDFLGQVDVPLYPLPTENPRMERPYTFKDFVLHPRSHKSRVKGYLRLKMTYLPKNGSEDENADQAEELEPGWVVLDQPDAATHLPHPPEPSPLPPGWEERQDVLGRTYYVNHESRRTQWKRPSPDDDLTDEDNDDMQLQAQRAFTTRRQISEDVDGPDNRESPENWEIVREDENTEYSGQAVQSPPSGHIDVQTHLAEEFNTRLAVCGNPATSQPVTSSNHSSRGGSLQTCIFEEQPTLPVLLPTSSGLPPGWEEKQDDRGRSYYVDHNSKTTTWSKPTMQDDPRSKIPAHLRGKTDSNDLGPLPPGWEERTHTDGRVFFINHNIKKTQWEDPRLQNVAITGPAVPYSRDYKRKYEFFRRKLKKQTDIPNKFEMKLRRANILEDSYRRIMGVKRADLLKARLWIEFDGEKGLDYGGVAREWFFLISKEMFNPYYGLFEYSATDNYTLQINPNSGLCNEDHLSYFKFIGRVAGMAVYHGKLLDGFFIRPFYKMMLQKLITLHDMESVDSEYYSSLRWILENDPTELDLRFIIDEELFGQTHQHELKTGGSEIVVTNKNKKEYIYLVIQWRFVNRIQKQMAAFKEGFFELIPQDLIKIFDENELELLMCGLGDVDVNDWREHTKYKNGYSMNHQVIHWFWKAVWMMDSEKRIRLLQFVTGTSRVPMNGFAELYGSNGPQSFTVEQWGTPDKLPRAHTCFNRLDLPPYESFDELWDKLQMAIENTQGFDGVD", "UniProt Q8CFI0": "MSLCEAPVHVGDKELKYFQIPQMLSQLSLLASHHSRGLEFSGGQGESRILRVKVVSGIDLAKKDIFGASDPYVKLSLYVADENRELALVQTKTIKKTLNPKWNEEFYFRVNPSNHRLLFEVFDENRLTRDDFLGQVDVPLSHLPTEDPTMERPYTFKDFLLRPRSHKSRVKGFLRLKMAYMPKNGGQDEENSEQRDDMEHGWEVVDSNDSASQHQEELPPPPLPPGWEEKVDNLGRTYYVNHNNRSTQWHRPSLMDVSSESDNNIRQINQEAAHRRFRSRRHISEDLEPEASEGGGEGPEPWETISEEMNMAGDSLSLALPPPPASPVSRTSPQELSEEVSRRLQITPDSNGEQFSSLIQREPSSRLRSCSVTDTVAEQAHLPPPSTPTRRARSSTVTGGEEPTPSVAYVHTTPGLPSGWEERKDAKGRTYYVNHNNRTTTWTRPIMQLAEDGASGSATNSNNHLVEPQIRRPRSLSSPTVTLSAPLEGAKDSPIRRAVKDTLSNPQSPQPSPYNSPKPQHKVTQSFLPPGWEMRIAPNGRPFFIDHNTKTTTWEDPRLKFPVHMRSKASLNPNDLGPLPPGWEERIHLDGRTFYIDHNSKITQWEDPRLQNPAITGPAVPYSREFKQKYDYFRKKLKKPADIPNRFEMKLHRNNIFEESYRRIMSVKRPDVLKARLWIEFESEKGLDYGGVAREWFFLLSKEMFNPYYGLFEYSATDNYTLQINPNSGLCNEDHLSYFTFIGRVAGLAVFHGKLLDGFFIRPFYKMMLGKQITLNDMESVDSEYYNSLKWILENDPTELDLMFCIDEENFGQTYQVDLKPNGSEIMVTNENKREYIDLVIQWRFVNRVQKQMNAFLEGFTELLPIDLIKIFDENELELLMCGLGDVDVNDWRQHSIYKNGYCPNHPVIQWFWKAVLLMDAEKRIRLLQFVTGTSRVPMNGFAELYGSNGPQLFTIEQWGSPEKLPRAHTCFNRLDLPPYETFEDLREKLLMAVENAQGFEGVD"}, "source": "paper PMC11841259", "key": {"[1]": {"target": "RORγt (endogenous, mouse Th17 cells) (mouse (endogenous in Th17 cells)) (UniProt P51450)", "experiment": "co-IP; endogenous proteins; mouse Th17 cells (unstimulated or restimulated with anti-CD3 and anti-CD28) lysed in 0.5% NP40 lysis buffer; immunoprecipitated with anti-RORγt conjugated to agarose, blotted with anti-Nedd4 and anti-Nedd4-2"}, "GST-Nedd4": {"target": "GST-Nedd4 (UniProt P46934)", "experiment": "pull-down; GST-Nedd4 or GST-Nedd4 WW incubated with Th17 cell lysates; glutathione sepharose beads, 4 °C, washed 5 times with 1x TBST; only the target purified"}, "Myc-tagged RORγt": {"target": "Myc-tagged RORγt (UniProt P51450)", "experiment": "co-IP; HEK293T cells transfected with Flag-tagged Nedd4 or its truncated fragments and Myc-tagged RORγt or RORγt Y479F; 0.5% NP40 lysis buffer; immunoprecipitated with anti-Myc, blotted with anti-Flag"}, "[2]": {"target": "Myc-tagged RORγt Y479F mutant (UniProt P51450)", "experiment": "co-IP; HEK293T cells transfected with Flag-tagged Nedd4 or its truncated fragments and Myc-tagged RORγt or RORγt Y479F; 0.5% NP40 lysis buffer; immunoprecipitated with anti-Myc, blotted with anti-Flag"}}, "note": "Results are given in words; binding and its absence hold for the method and conditions named. In cells and extracts the contact can be indirect. Some entries that bind do so weakly or less than the wild type."}
{"substance": "Nedd4 (endogenous, mouse Th17 cells) (from UniProt P46935 1-887) (enzyme)", "values": [{"measurement": "binding", "setting": "[1]", "value": "binds"}]}
{"substance": "Nedd4-2 (endogenous, mouse Th17 cells) (from UniProt Q8CFI0 1-1004) (enzyme)", "values": [{"measurement": "binding", "setting": "[1]", "value": "binds"}]}
{"substance": "RORγt (endogenous, mouse Th17 cells) (from UniProt P51450-2 1-495)", "values": [{"measurement": "binding", "setting": "GST-Nedd4", "value": "binds"}]}
{"substance": "Flag-tagged Nedd4 (full-length) (from UniProt P46934-4 1-900) (enzyme)", "values": [{"measurement": "binding", "setting": "Myc-tagged RORγt", "value": "binds"}, {"measurement": "binding", "setting": "[2]", "value": "no binding"}]}
